Some of the results follow. Sequences were assembled here from the parent chain. Inactive controls read about 0.05.
B1: TEV protease; numbered along this chain (parent)
chain: MGESLFKGPRDYNPISSSICHLTNESDGHTTSLYGIGFGPFIITNKHLFRRNNGTLVVQSLHGVFKVKDTTTLQQHLVDGRDMIIIRMPKDFPPFPQKLKFREPQREERICLVTTNFQTKSMSSMVSDTSCTFPSGDGIFWKHWIQTKDGQCGSPLVSTRDGFIVGIHSASNFTNTNNYFTSVPKNFMELLTNQEAQQWVSGWRLNADSVLWGGHKVFMVKPEEPFQPVKEATQL

Variants of: B1
Assay: raw area under fraction-flipped curve 0-4 h after induction (AUC4h, not background-subtracted), DNA-recorder readout of cleavage of the substrate (dimensionless); higher = more cleavage of the substrate by the protease variant
Conditions: temperature: 34 °C; time window: 0-4 h after rhamnose induction
Experimental: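 In vivo DNA recorder in E. coli TOP10(DE3) ΔrhaA at 34 °C. Each TEVp single-site mutant (parent TEVp 0) is paired with a single-site variant of the 7-mer TEVs (canonical ENLYFQ|S). The substrate sits between flexible linkers in a Bxb1-sfGFP-TEVs-SsrA fusion, so cleavage stabilises Bxb1 and speeds flipping of a recombination array, read by NGS. The value is the raw area under the fraction-flipped curve over 0-4 h after rhamnose induction (AUC4h), with ≥20 reads per time point. It is not background-subtracted; inactive controls average about 0.047.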
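Also: Bxb1 expression induced with 0.2% (w/v) L-rhamnose at OD600 near 0.5, cultures sampled hourly, flipped fraction per protease–substrate barcode pair counted by paired-end Illumina sequencing.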

Variant	area with substrate EALYFQS	area with substrate EDLYFQS	area with substrate EELYFQS	area with substrate EGLYFQS	area with substrate EHLYFQS	area with substrate EILYFQS	area with substrate EKLYFQS	area with substrate ELLYFQS	area with substrate EMLYFQS	area with substrate EQLYFQS	area with substrate ERLYFQS	area with substrate ESLYFQS	area with substrate ETLYFQS	area with substrate EVLYFQS	area with substrate EWLYFQS	area with substrate ECLYFQS	area with substrate EFLYFQS	area with substrate EPLYFQS	area with substrate EYLYFQS
D149T	0.116	0.105	0.114	0.0736	0.0869	0.0672	0.0873	0.0713	0.0981	0.091	0.0923	0.0917	0.0649	0.0895	0.0026				
Q151N	0.081		0.0676	0.064	0.0729	0.0795	0.085	0.0624		0.0714	0.0816	0.0739	0.0896	0.0587		0.0712	0.0697	0.0691	
Q151T	0.0906				0.0946	0.052		0.09		0.0992	0.0856	0.0897	0.0945	0.0854	0.0921	0.0902		0.0691	
Q151Y	0.0789	0.109		0.0715		0.0962	0.0838	0.0776	0.0743	0.0797	0.0842	0.0793	0.0449	0.0756			0.0843		
P155I	0.0681			0.0647		0.0481	0.067	0.057		0.0656	0.0696	0.0686	0.0602	0.041	0.0967	0.0667	0.0838	0.0698	0.0721
L156R	0.0561			0.0662	0.0564		0.0864	0.0329	0.0656	0.0457		0.0524		0.0726					0.0144
V157E	0.047		0.057	0.0566		0.067	0.0649			0.0492	0.0694	0.0453	0.0482	0.0054			0.0581	0.0487	0.0648
V157W	0.105		0.0696	0.0722		0.0627	0.0722	0.0685	0.07	0.0672	0.0624	0.0673		0.0653		0.0724		0.0823	0.0631
S158N	0.0991	0.0813	0.104	0.0708		0.0604	0.102				0.0769	0.0808		0.0685			0.0764	0.0917	
S158Y	0.0547			0.048	0.0403	0.0617	0.0602	0.0521	0.0593	0.0618	0.0533	0.0585			0.0501	0.0511	0.0391		
T159I	0.127	0.165		0.104		0.0918	0.155		0.155	0.129	0.107				0.123	0.106		0.152	0.103
R160W	0.0547		0.166	0.101		0.117		0.118		0.125		0.097	0.116		0.0704				0.0782
G162D	0.0737			0.0988	0.0659	0.0827		0.0744	0.118					0.185	0.0803	0.098	0.121		
G162F	0.105	0.13	0.0759	0.0779		0.093	0.0797	0.0712		0.0909	0.0961	0.0841		0.0839				0.116	0.0817
G162L	0.0908		0.105		0.0981	0.0883			0.097		0.104	0.102	0.106		0.0509	0.111			0.0931
G162R	0.144			0.105	0.109	0.0867	0.108		0.0114			0.0984		0.094		0.0887	0.1		0.131
F163I	0.111	0.122		0.0627	0.106	0.108		0.0673	0.106			0.0906	0.0585	0.099	0.0698				0.0596
I164G	0.0465		0.06		0.0525	0.0576	0.036	0.0371	0.043	0.0495	0.0543	0.0514	0.0623	0.0577	0.0335	0.0411	0.0571	0.0445	
I164Q	0.0455	0.0565		0.0509		0.0488		0.0504	0.058	0.0445	0.0527	0.0487		0.0522	0.049	0.0568		0.0524	0.0543
V165P	0.0537		0.125	0.0434		0.054	0.0374	0.0634	0.0562	0.0559	0.0631	0.0608			0.0452	0.0594	0.0606	0.0508	0.049
G166F	0.043		0.0507	0.0445	0.0565		0.0496		0.0547		0.0477	0.0512		0.0501	0.0664	0.0506			0.0819
G166W	0.0473	0.0494	0.0554		0.0376	0.0476					0.0332	0.0472			0.0544		0.0487		
I167R	0.0472		0.0484	0.0546		0.0511	0.0533	0.0341		0.0438	0.0551	0.0526		0.0398		0.0423		0.0478	
I167V	0.0751			0.0891	0.112	0.0971		0.0674	0.118	0.0886		0.0881		0.0896		0.0985		0.058	
S169D	0.067	0.0634		0.0735		0.0583	0.0647	0.0575		0.0507	0.0634	0.0567	0.0519	0.0514	0.0708		0.0595	0.0557	
S169I	0.0638		0.0625	0.0641	0.0563	0.053	0.0573	0.0605	0.0447	0.044	0.0622	0.0607		0.0523	0.0372	0.0455	0.0614	0.0619	0.0726
A170T	0.127		0.0656							0.0512		0.0665		0.059					
A170Y	0.0568					0.0582			0.0644			0.0606		0.0587			0.0701		

From the supplement of paper PMC12217912
